Assay results as given in PubChem BioAssay AID485294 (National Center for Advancing Translational Sciences (NCATS), 2010).
Among all 370,000 compounds or so, about 150 (0.041%) were called active. The inconclusive results got no clear call from the source; some entries with a clear call stand among them for comparison. Calls follow the shape of the dose curve; as a rule, active = well fitted inhibition curve with a large enough effect; inconclusive = small, poorly fitted or top-dose-only effect; inactive = flat fitted curve, though single readings scatter. Potencies of inconclusive entries are left out as doubtful fits.

These compounds were tested against Beta-lactamase (Escherichia coli (strain K12)) (UniProt P00811) (assay: qHTS Inhibitors of AmpC Beta-Lactamase (assay with detergent)). Conditions: AmpC hydrolysis of nitrocefin, absorbance 480 nm, 0.01% Triton; series mostly up to 114 µM.
Chain of UniProt P00811 (P00811 whole entry, looked up): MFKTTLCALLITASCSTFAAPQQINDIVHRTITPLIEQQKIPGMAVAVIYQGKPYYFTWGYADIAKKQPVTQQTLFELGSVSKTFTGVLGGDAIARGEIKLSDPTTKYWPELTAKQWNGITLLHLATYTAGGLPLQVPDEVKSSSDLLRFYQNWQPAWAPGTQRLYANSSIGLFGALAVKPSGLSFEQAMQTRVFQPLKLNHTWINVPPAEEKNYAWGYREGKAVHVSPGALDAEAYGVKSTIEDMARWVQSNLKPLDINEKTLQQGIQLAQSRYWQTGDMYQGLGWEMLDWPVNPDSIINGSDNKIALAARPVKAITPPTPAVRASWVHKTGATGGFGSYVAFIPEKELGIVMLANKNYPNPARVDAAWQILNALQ
In short: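 20 mM phosphate pH 7.0 + 0.01% (detergent screen) or 0.0001% Triton X-100; 5.3 nM AmpC reagent; cpd preinc 15 min RT; nitrocefin (800 uM stock) to start; A480 q20 s × 4 min; Activity was normalised to no-enzyme and no-compound control wells.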
Also: nearly all actives have a fitted effect of over 25% in size.
Potency is read from the fitted curve at half-maximal effect; tags tell the direction and shape of the fitted curve.

Row | Structure (SMILES) | Potency
1 | COc1cccc(NC(=O)C2CCN(C(=O)[C@@H]3Cc4ccccc4CN3)CC2)c1 | inactive
2 | COc1ccc(CCNC(=O)c2ccc(CS(=O)(=O)c3ccc(C)cc3)o2)cc1OC | inconclusive [inhibitor, full curve, poor fit]
3 | Cc1cc(C)cc(Oc2coc3c(CN(C)C)c(O)ccc3c2=O)c1 | inconclusive [inhibitor, full curve, poor fit]
4 | Cn1c(=O)n(CCN2CCOCC2)c(=O)c2c1nc1n2CCN1c1ccc(Oc2ccccc2)cc1 | inconclusive [inhibitor, full curve, poor fit]
5 | CN(CC(=O)Nc1cccc(F)c1)C(=O)c1cn(-c2ccccc2)nc1-c1ccc(Cl)cc1 | inactive
6 | O=C(Nc1c(C(=O)N2CCN(c3ccc(F)cc3)CC2)oc2ccccc12)c1ccco1 | inactive
7 | Cc1csc(NC(=O)c2cnc3ccccc3n2)n1 | inconclusive [inhibitor, full curve, poor fit]
8 | O=C(CN1CCN(C2CCCCC2)CC1)c1ccc2cc[nH]c2c1 | inactive
9 | CCN1C(=O)[C@H]2[C@@H](c3ccc(-c4ccc(C(C)=O)cc4)cc3)N3CCCC[C@@]3(C(=O)OC)[C@H]2C1=O | inconclusive [inhibitor, full curve]
10 | COCCN(C(=O)COC(=O)c1ccc2c(c1)OCCO2)c1c(N)n(Cc2ccccc2)c(=O)[nH]c1=O | inconclusive [inhibitor, full curve, poor fit]
11 | CSc1cccc(NC(=O)CN(C)S(=O)(=O)c2ccc3c(c2)n(C)c(=O)c(=O)n3C)c1 | inactive
12 | Cc1cc(C(F)(F)F)c(C#N)c(=O)[nH]1 | inconclusive [inhibitor, single point]
13 | CN1/C(=C\C(=O)CSc2cccc[n+]2[O-])C(C)(C)c2ccccc21 | inactive
14 | CCN(C(=O)COC(=O)COc1ccc2c(c1)CCC2)c1c(N)n(Cc2ccccc2)c(=O)[nH]c1=O | inconclusive [inhibitor, full curve, poor fit]
15 | COc1ccc(N2CCN(C(=O)Cn3cnc4c3c(=O)n(C)c(=O)n4C)CC2)cc1 | inconclusive [inhibitor, single point]
16 | O=C(O)CC(Cc1ccc(Cl)cc1)C(=O)NCC12CC3CC(CC(C3)C1)C2 (configuration not stated) | inconclusive [inhibitor, full curve]
17 | Cn1c(SCC(=O)NNC(=O)c2ccccc2O)nnc1-c1ccccc1 | inactive
18 | COc1ccc(CNC(=O)c2ccc(CN3CCOCC3)cc2)cc1 | inconclusive [inhibitor, full curve]
19 | COc1ccccc1/C=C\C=N\n1c(-c2ccc(Cl)cc2Cl)n[nH]c1=S | inconclusive [inhibitor, partial curve, poor fit]
20 | COc1cc(NC(=O)c2cccs2)c(C(=O)OCC(=O)NCc2ccccc2)cc1OC | inconclusive [inhibitor, full curve, poor fit]
21 | COc1ccc(NC(=O)c2ccc(S(=O)(=O)N3CCCC3)cc2)cc1OC | inconclusive [inhibitor, full curve, poor fit]
22 | Cc1cc(C)c(OCC(=O)OCC(=O)NCCC2=CCCCC2)c(C)c1 | inactive
23 | O=C(O)CCN1C(=O)c2ccc(NC(=O)CCc3ccccc3)cc2C1=O | inactive

Row | Structure (SMILES) | Potency
24 | CC(C)N1CC(C(=O)Nc2cccc([N+](=O)[O-])c2)CC1=O (configuration not stated) | inconclusive [inhibitor, single point]
25 | COc1ccc(-c2csc(N(CCCN3CCOCC3)C(=O)c3ccco3)n2)cc1 | inactive
26 | CCCS(=O)(=O)n1nc(-c2ccc(C)cc2)cc1N | inconclusive [inhibitor, single point]
27 | CCOc1ccc(CNC(=O)COc2cc(=O)n(C)c3ccccc23)cc1 | inactive
28 | Cc1cccc(-n2c(N)c(-c3nc4ccccc4n3C)c3nc4ccccc4nc32)c1 | inactive
29 | Cc1ccc(N(C(=O)c2ccc(S(=O)(=O)N3CCOCC3)cc2)C2C=CS(=O)(=O)C2)cc1 (configuration not stated) | inconclusive [inhibitor, full curve, poor fit]
30 | Cc1ccccc1OCC(=O)Nc1cccc(Cl)c1C | inactive
31 | O=C1C2ON(c3ccccc3)C(c3ccncc3)C2C(=O)N1c1ccc(Br)cc1 (configuration not stated) | inconclusive [inhibitor, full curve, poor fit]
32 | O=C(COC(=O)c1ccccc1NC(=O)c1ccco1)NCCC1=CCCCC1 | inconclusive [inhibitor, full curve, poor fit]
33 | Cc1ccc(NC(=O)c2cc(-c3ccc(C)c(C)c3O)n[nH]2)cc1C | inactive
34 | CCOc1ccc(NC(=O)CN2C(=O)NC(CCSC)C2=O)cc1 (configuration not stated) | inconclusive [inhibitor, full curve, poor fit]
35 | O=C(COC(=O)C1CC(=O)N(c2ccccc2)C1)c1ccccc1 (configuration not stated) | inconclusive [inhibitor, full curve]
36 | COCCCNC(=O)CN1C(=O)c2c(c3ccccc3n2C)C1c1ccc(OC)cc1 (configuration not stated) | inactive
37 | CC1CCC(NCC(O)c2ccccc2)CC1 (configuration not stated) | inconclusive [inhibitor, full curve, poor fit]
38 | NC(=O)c1cnn(Cc2ccc(Cl)cc2)c1N | inconclusive [inhibitor, single point]
39 | Cc1onc(-c2ccccc2)c1C(=O)c1c[nH]c(C(=O)NCc2ccncc2)c1 | inconclusive [inhibitor, full curve, poor fit]
40 | O=C(O)CNS(=O)(=O)c1cccc(Cl)c1 | inactive
41 | Fc1ccc(CNc2nc3c(-c4ccc(F)cc4)nnn3c3ccccc23)cc1 | inactive
42 | C=CCc1cc(C=C2C(=O)N(C)C(=O)N(C)C2=O)cc(OCC)c1OCc1ccccc1 | inactive
43 | COc1ccc(C(CNS(=O)(=O)c2ccccc2)N2CCN(C)CC2)cc1 (configuration not stated) | inconclusive [inhibitor, partial curve, poor fit]
44 | Cc1oc(-c2ccccc2)nc1CSc1nc2c(c(=O)[nH]1)CCC2 | inconclusive [inhibitor, partial curve, poor fit]
45 | COc1ccc(-c2csc(C)n2)cc1Br | inconclusive [inhibitor, full curve, poor fit]
46 | O=C(COC(=O)c1ccc(O)cc1)NCCC1=CCCCC1 | inconclusive [inhibitor, full curve]

Row | Structure (SMILES) | Potency
47 | CC1(C)C(=O)Nc2ccccc2N1C(=O)COc1ccc(S(=O)(=O)N2CCOCC2)cc1Cl | inconclusive [inhibitor, partial curve, poor fit]
48 | Cc1ccc(COC(=O)Cc2coc3cc(O)ccc23)cc1 | inconclusive [inhibitor, full curve, poor fit]
49 | CNc1nnc(-c2cc3cc(Cl)ccc3oc2=O)s1 | inconclusive [inhibitor, full curve, poor fit]
50 | CCc1ccccc1Nc1nc(-c2cccnc2)cs1 | inconclusive [inhibitor, full curve, poor fit]
51 | Cc1cc(C)nc(SCc2nnc(SCC(=O)Nc3nccs3)n2C)n1 | inconclusive [inhibitor, partial curve, poor fit]
52 | N/C(=N\OC(=O)c1ccccc1)c1ccccn1 | inactive
53 | CC1CC(C)CN(C(=O)CSc2nc(N)cc(=O)[nH]2)C1 (configuration not stated) | inconclusive [inhibitor, single point]
54 | CC1(C)CC(NC(=O)COc2ccc(Br)cc2Cl)CC(C)(C)N1 | inactive
55 | O=C(Nc1ccc(Cl)c(Cl)c1)N1CC=CCC1 | inconclusive [inhibitor, full curve, poor fit]
56 | CN(C)c1ccc(N=c2sc3ccccc3n2C)cc1 | inactive
57 | O=C(CS(=O)(=O)c1ccccc1)N1CCN(c2ccccc2)CC1 | inconclusive [inhibitor, full curve, poor fit]
58 | Cc1cc(C)c2ccc(=O)n(CC(=O)N/N=C/c3ccccc3Cl)c2n1 | inactive
59 | CCC1CCc2sc(C(=O)O)cc2C1 (configuration not stated) | inconclusive [inhibitor, partial curve]
60 | Cc1onc(-c2ccccc2)c1C(=O)Nc1sc2c(c1C#N)CCC2 | inconclusive [inhibitor, full curve, poor fit]
61 | Cc1c(NC(=O)c2cnn3c2NC(c2ccc(Br)cc2)CC3C(F)(F)F)c(=O)n(-c2ccccc2)n1C (configuration not stated) | inconclusive [inhibitor, single point]
62 | O=C(Cn1cc2c(n1)CCCC2)NC1CCN(Cc2ccccc2)CC1 | inconclusive [inhibitor, full curve, poor fit]
63 | CC(C)(C)[C@H]1CCC(=O)N([C@H](CC#N)Cc2ccccc2)CC1 | inconclusive [inhibitor, partial curve]
64 | CCC1Oc2ccc(C)cc2N(CC(=O)NCCN2C(C)CCCC2C)C1=O (configuration not stated) | inconclusive [inhibitor, full curve, poor fit]
65 | COc1ccc(-n2nc(C(=O)NCC(=O)N3CCN(c4ccccc4OC)CC3)c3ccccc3c2=O)cc1OC | inactive
66 | COc1ccc(COC(=O)C2CCN(S(=O)(=O)c3ccc(C)cc3)CC2)cc1 | inconclusive [inhibitor, full curve, poor fit]
67 | CCc1ccc([C@@H]2CC=C(C(=O)O)[C@H](c3ccccc3F)N2S(=O)(=O)c2ccc(C)cc2)cc1 | inconclusive [inhibitor, single point]
